The results in this text go back to patent US20250297021A1 (SHANDONG SIMCERE BIOPHARMACEUTICAL CO NO 1, published 2025).

The target of assay [1] is T1, human BCMA-His protein (human, UniProt Q02223 1-54).
T1 construct: bought; also called human BCMA protein; not shown: His tag
T1 sequence (looked up): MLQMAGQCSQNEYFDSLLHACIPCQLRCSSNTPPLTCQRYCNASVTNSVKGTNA
Nature of the assay: ELISA, human BCMA-His coated; Ab 0.1 nM. As to the method:
(§1) The specific method was as follows: Human BCMA protein (purchased from Acro, catalog number: BCA-H522y) and monkey BCMA protein (purchased from Acro, catalog number: BCA-C52H7) were diluted with PBS to a final concentration of 1 μg/mL, respectively, and then added to a 96-well ELISA plate at 50 μl/well. The plate was sealed with a plastic film and incubated overnight at 4° C., the plate was washed twice with PBS the next day, and then a blocking solution [PBS+2% (w/v) BSA] was added for blocking at room temperature for 2 h. The blocking solution was discarded, the plate was washed 3 times with PBS, and 100 nM BCMA human-mouse chimeric antibody diluted gradiently or control antibody was added at 50 μl/well. After incubation at 37° C. for 2 h, the plate was washed 3 times with PBS. HRP (horseradish peroxidase)-labeled secondary antibody (purchased from Merck, catalog number: AP113P) was added, and incubated at 37° C. for 1 h, and the plate was washed 5 times with PBS. TMB substrate was added at 50 μl/well, and incubated at room temperature for 10 min, then a stop solution (1.0 M HCl) was added at 50 μl/well. The OD450 nm values were read by an ELISA microplate reader (Multimode Plate Reader, EnSight, purchased from Perkin Elmer). The results are shown in Table 7, Table 8 and FIGS. 7A-7B and FIG. 8A-8B. All chimeric antibodies have good binding activity with human BCMA protein; except that BCMA-mAb06 has no cross-binding activity with monkey BCMA protein and BCMA-mAb07 has weak binding to monkey BCMA protein, other chimeric antibodies have good binding activity with monkey BCMA protein. The IgG subtype control is human IgG1.

The target in assay [2] is T2, human BCMA on cells (human, UniProt Q02223 1-184).
T2 construct: whole, on cells; also called H929 cells; U266 cells
T2 sequence (looked up): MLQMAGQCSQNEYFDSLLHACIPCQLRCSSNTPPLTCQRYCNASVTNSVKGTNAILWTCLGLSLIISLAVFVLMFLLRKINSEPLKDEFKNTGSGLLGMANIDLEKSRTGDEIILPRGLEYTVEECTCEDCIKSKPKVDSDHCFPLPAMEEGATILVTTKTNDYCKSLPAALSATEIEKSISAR
Nature of the assay: cell ELISA, Flp-inCHO-human BCMA cells; Ab 100.00 nM. From the text:
(§2) The specific method was as follows: The required cells were scale-up cultured in a T-75 cell culture flask to the logarithmic growth phase, the medium was aspirated, the cells were washed twice with a PBS buffer, and then digested with trypsin. Then the digestion was terminated with a complete medium, and the cells were pipetted to obtain a single cell suspension. After the cells were counted and centrifuged, the cell precipitate was resuspended to 4×10⁵ cells per milliliter with a complete medium, and the suspension was added to a 96-well flat-bottomed cell culture plate at 100 μl/well, and cultured overnight in a 37° C., 5% carbon dioxide incubator. On the next day, the medium in the 96-well plate was discarded, the cells were washed once with PBS, and then fixed at room temperature for 0.5 h with an immunostaining fixative (purchased from Beyotime, catalog number: P0098-500 ml) at 50 μl/well. A blocking solution [PBS+5% (w/v) skim milk] was added for blocking at room temperature for 2 h. The blocking solution was discarded, the plate was washed 3 times with PBS, and 100 nM BCMA human-mouse chimeric antibody diluted gradiently or control antibody was added at 50 μl/well. After incubation at 37° C. for 2 h, the plate was washed 3 times with PBS. HRP (horseradish peroxidase)-labeled secondary antibody (purchased from Merck, catalog number: AP113P) was added, and incubated at 37° C. for 1 h, and the plate was washed 5 times with PBS. TMB substrate was added at 50 μl/well, and incubated at room temperature for 10 min, then a stop solution (1.0 M HCl) was added at 50 μl/well. The OD450 nm values were read by an ELISA microplate reader (Multimode Plate Reader, EnSight, purchased from Perkin Elmer). The chimeric antibodies bind well to Flp-inCHO-human BCMA cells. The IgG subtype control is human IgG1.
In general terms: ELISA stands for enzyme-linked immunosorbent assay.

Assay [3] deals with T1, human BCMA-His protein. Kind of assay: ELISA, human BCMA-His coated; Ab 10 nM. How it is done: as §1
Assay [4] deals with T1, human BCMA-His protein. Kind of assay: ELISA, human BCMA-His coated; Ab 0.0001 nM. As to the method: as §1
The target of assay [5] is T2, human BCMA on cells. Kind of assay: cell ELISA, Flp-inCHO-human BCMA cells; Ab 0.02 nM.
Description: as §2

Assay [6] concerns the target T2, human BCMA on cells. Nature of the assay: cell ELISA, Flp-inCHO-human BCMA cells; Ab 0.01 nM.
Description: as §2

In assay [7] the target is T2, human BCMA on cells. Nature of the assay: cell ELISA, Flp-inCHO-human BCMA cells; Ab 0.41 nM.
Description: as §2

Assay [8] has as its target T1, human BCMA-His protein. Nature of the assay: ELISA, human BCMA-His coated; Ab 0.001 nM. As to the method:
as §1

Assay [9] deals with T1, human BCMA-His protein. Nature of the assay: ELISA, human BCMA-His coated; Ab 1 nM. As to the method:
as §1

Assay [10] addresses T2, human BCMA on cells. Nature of the assay: cell ELISA, Flp-inCHO-human BCMA cells; Ab 0.14 nM.
Description: as §2

Assay [11] addresses T3, monkey BCMA-His protein (monkey, UniProt A0A2K5UD97 1-53).
T3 construct: bought; monkey species not further stated for this product; also called monkey BCMA protein
Kind of assay: ELISA, monkey BCMA-His coated; Ab 100 nM. As to the method: as §1

The target of assay [12] is T3, monkey BCMA-His protein. Kind of assay: ELISA, monkey BCMA-His coated; Ab 0.0001 nM. How it is done: as §1
T3 sequence (A0A2K5UD97 entry or part of it limits assumed): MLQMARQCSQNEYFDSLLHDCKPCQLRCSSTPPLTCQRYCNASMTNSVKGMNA
Assay [13] deals with T3, monkey BCMA-His protein. Kind of assay: ELISA, monkey BCMA-His coated; Ab 0.001 nM. How it is done: as §1

B1: BCMA-mAb07 (Fc fusion)
scFv: QVQLQQSGAELAKPGASVKLSCKASGYTFTDYWTHWVKQRPGQGLEWIGYINHGSGYTKYNQKFKDKATLTADKSSSTAYMQVSSLTYEDSAVYYCARLTGSYYFDYWGQGTTLTVSSGGGGSGGGGSGGGGSQIVLTQSPAIMSASPGEKVTMTCSASSSVSYMHWYQQKSGTSPKRWIYDTSKLASGVPPRFSGSGSGTSYSLTISSMEAEDAATYYCQQWSSNPLTFGAGTKLELK[human IgG1 Fc with C220S (EU numbers) not spelt out]
B1: the OD450 in assay [1] was 1.46; in assay [2] it was 0.91; in assay [3], 2.21; in assay [4], 0.08; in [5] it was 0.12; in assay [6], 0.1. Further, the OD450 in assay [7] came out at 0.6; in assay [8], 0.14; in assay [9] it was 2.29; in [10] it was 0.31.

B2: BCMA-mAb02 (Fc fusion)
scFv: EVQLVESGGDLVQPGESLKLSCESNAYEFPSYDMSWVRKTPEKRLELVAAINSDGGITYYPDTMERRFIISRDNTKKTLYLQMSSLRSEDTALYYCARHGYGGGAYVLDYWGQGTSVTVSSGGGGSGGGGSGGGGSDIVMTQSQKFMSTTVGDRVRITCKASQNVGTAVAWYQQKPGQSPKVLIYSASSRYTGVPDRFTGSGSGTDFTLTINNMQSEDLADYFCQQYSNYHLTFGTGTKLELK[human IgG1 Fc with C220S (EU numbers) not spelt out]
For B2, the OD450 in assay [11] is 2.56; in assay [12], 0.05; in assay [1], 0.24; in assay [2], 1.18; in assay [3] it was 2.42; in assay [4], 0.05. Further, the OD450 in assay [5] came out at 0.11; in assay [6], 0.09; in [7], 0.54; in [13], 0.05; in assay [8], 0.05; in assay [9], 1.01. In assay [10], this molecule registered an OD450 of 0.36.

B3: BCMA-mAb04 (Fc fusion)
scFv: QVQLQQSGAELARPGASVDLSCKASGYSFTSYGISWVKLRTGQGLEWIGEIYPRDDITYYNEKFKGKTTLTADKSSSTAYMELRSLTSEDSAVYFCARHDYYYVNSVSAMDYWGQGTSVTVSSGGGGSGGGGSGGGGSDIVMSQSPSSLAVSVGEKVTMSCKSSQSLLYSSNQKNYLAWYQQKPGQSPKLLIYWASTRYSGVPDRFTGSGSGTDFTLTVSSVRAEDLALYYCQQYYIYPWTFGGGTKLEIK[human IgG1 Fc with C220S (EU numbers) not spelt out]
Consider B3, for which the OD450 in assay [11] was 2.95; in [12] it was 0.1; in [1], 0.26; in assay [2], 1.15; in [3] it was 2.59; in assay [4] it was 0.07. The OD450 in assay [5] amounted to 0.11; in assay [6], 0.07; in assay [7], 0.42; in assay [13], 0.15; in assay [8], 0.08; in assay [9] it was 1.31. In assay [10], the OD450 turned out to be 0.32.

B4: BCMA-mAb01 (Fc fusion)
scFv: EVKLVESGGGLVQPGGSLKLSCAASGFTFSDFYMYWVRQTPEKRLEWVAYITNGGENTYFPDTVKGRFTISRDNAKNTLYLQMSRLKSEDTAMYYCARQNPFYYYDSNYDYAMDFWGQGTSVTVSSGGGGSGGGGSGGGGSDVVMTQTPLTLSVTIGQPASISCKSSQSLLYSNGKTYLSWLFQRPGQSPKRLIYLVSELDSGVPDRFTGSGSGTDFTLKISRVEAEDLGIYYCVQGTHFPHTFGGGTKLEIK[human IgG1 Fc with C220S (EU numbers) not spelt out]
On to B4, for which the OD450 in assay [11] came to 2.73; in assay [12], 0.06; in assay [1], 0.43; in [2], 1.08; in assay [3], 2.52; in [4], 0.07. The OD450 in assay [5] came out at 0.13; in [6], 0.1; in assay [7], 0.56; in assay [13], 0.07; in assay [8], 0.06; in assay [9], 1.76. In assay [10], the OD450 was 0.4.

B5: BCMA-mAb03 (Fc fusion)
scFv: QIPLVQSGPELKKPGETVKISCKASGYTFTNYAMTWVKQAPGKGLKWMGWIDTYSGVPTYADDFKGRFAFSLETSATTAYLQINNLKNEDTATYFCARVGVYGGYDTLDSWGQGTSVTVSSGGGGSGGGGSGGGGSDIQMTQTTSSLSASLGDRVTISCSASQGISNHLNWYQQKPDGTVKLLIYYTSSLHSGVPSRFSGSGSGTDYSLTISNLEPEDFATYYCQQYNNLPWTFGGGTKLEIK[human IgG1 Fc with C220S (EU numbers) not spelt out]
For the molecule B5, the OD450 in assay [11] amounted to 3.06; in assay [12] it was 0.08; in assay [1], 0.21; in [2], 1.15; in assay [3] it was 2.51; in [4] it was 0.06. The OD450 in [5] stood at 0.11; in assay [6], 0.09; in assay [7], 0.4; in assay [13], 0.1; in assay [8] it was 0.07; in assay [9], 1. The molecule further returned an OD450 in assay [10] of 0.28.
